Sequences and labels used below:
B1: TNFα dAb Fc variant G64K (Fc fusion, name in Kabat numbering)
chain: DIQMTQSPSSLSASVGDRVTITCRASQAIDSYLHWYQQKPGKAPKLLIYSASNLETGVPSRFSKSGSGTDFTLTISSLLPEDFATYYCQQVVWRPFTFGQGTKVEIKRV[human IgG1 Fc with changes left out]
B2: TNFα dAb Fc variant G66D (Fc fusion, name in Kabat numbering)
chain: DIQMTQSPSSLSASVGDRVTITCRASQAIDSYLHWYQQKPGKAPKLLIYSASNLETGVPSRFSGSDSGTDFTLTISSLLPEDFATYYCQQVVWRPFTFGQGTKVEIKRV[human IgG1 Fc with changes left out]
B3: TNFα dAb Fc variant G64L (Fc fusion, name in Kabat numbering)
chain: DIQMTQSPSSLSASVGDRVTITCRASQAIDSYLHWYQQKPGKAPKLLIYSASNLETGVPSRFSLSGSGTDFTLTISSLLPEDFATYYCQQVVWRPFTFGQGTKVEIKRV[human IgG1 Fc with changes left out]
B4: TNFα dAb Fc variant G68K (Fc fusion, name in Kabat numbering)
chain: DIQMTQSPSSLSASVGDRVTITCRASQAIDSYLHWYQQKPGKAPKLLIYSASNLETGVPSRFSGSGSKTDFTLTISSLLPEDFATYYCQQVVWRPFTFGQGTKVEIKRV[human IgG1 Fc with changes left out]
B5: TNFα dAb Fc variant G68Y (Fc fusion, name in Kabat numbering)
chain: DIQMTQSPSSLSASVGDRVTITCRASQAIDSYLHWYQQKPGKAPKLLIYSASNLETGVPSRFSGSGSYTDFTLTISSLLPEDFATYYCQQVVWRPFTFGQGTKVEIKRV[human IgG1 Fc with changes left out]
B6: TNFα dAb Fc variant G68P (Fc fusion, name in Kabat numbering)
chain: DIQMTQSPSSLSASVGDRVTITCRASQAIDSYLHWYQQKPGKAPKLLIYSASNLETGVPSRFSGSGSPTDFTLTISSLLPEDFATYYCQQVVWRPFTFGQGTKVEIKRV[human IgG1 Fc with changes left out]
B7: TNFα dAb Fc variant G68H (Fc fusion, name in Kabat numbering)
chain: DIQMTQSPSSLSASVGDRVTITCRASQAIDSYLHWYQQKPGKAPKLLIYSASNLETGVPSRFSGSGSHTDFTLTISSLLPEDFATYYCQQVVWRPFTFGQGTKVEIKRV[human IgG1 Fc with changes left out]
B8: TNFα dAb Fc variant I48K (Fc fusion, name in Kabat numbering)
chain: DIQMTQSPSSLSASVGDRVTITCRASQAIDSYLHWYQQKPGKAPKLLKYSASNLETGVPSRFSGSGSGTDFTLTISSLLPEDFATYYCQQVVWRPFTFGQGTKVEIKRV[human IgG1 Fc with changes left out]
B9: TNFα dAb Fc variant G64Y (Fc fusion, name in Kabat numbering)
chain: DIQMTQSPSSLSASVGDRVTITCRASQAIDSYLHWYQQKPGKAPKLLIYSASNLETGVPSRFSYSGSGTDFTLTISSLLPEDFATYYCQQVVWRPFTFGQGTKVEIKRV[human IgG1 Fc with changes left out]
B10: TNFα dAb Fc variant I48Q (Fc fusion, name in Kabat numbering)
chain: DIQMTQSPSSLSASVGDRVTITCRASQAIDSYLHWYQQKPGKAPKLLQYSASNLETGVPSRFSGSGSGTDFTLTISSLLPEDFATYYCQQVVWRPFTFGQGTKVEIKRV[human IgG1 Fc with changes left out]
B11: TNFα dAb Fc variant G66H (Fc fusion, name in Kabat numbering)
chain: DIQMTQSPSSLSASVGDRVTITCRASQAIDSYLHWYQQKPGKAPKLLIYSASNLETGVPSRFSGSHSGTDFTLTISSLLPEDFATYYCQQVVWRPFTFGQGTKVEIKRV[human IgG1 Fc with changes left out]
B12: TNFα dAb Fc variant G66P (Fc fusion, name in Kabat numbering)
chain: DIQMTQSPSSLSASVGDRVTITCRASQAIDSYLHWYQQKPGKAPKLLIYSASNLETGVPSRFSGSPSGTDFTLTISSLLPEDFATYYCQQVVWRPFTFGQGTKVEIKRV[human IgG1 Fc with changes left out]
B13: TNFα dAb Fc variant I48H (Fc fusion, name in Kabat numbering)
chain: DIQMTQSPSSLSASVGDRVTITCRASQAIDSYLHWYQQKPGKAPKLLHYSASNLETGVPSRFSGSGSGTDFTLTISSLLPEDFATYYCQQVVWRPFTFGQGTKVEIKRV[human IgG1 Fc with changes left out]
B14: TNFα dAb Fc variant G64Q (Fc fusion, name in Kabat numbering)
chain: DIQMTQSPSSLSASVGDRVTITCRASQAIDSYLHWYQQKPGKAPKLLIYSASNLETGVPSRFSQSGSGTDFTLTISSLLPEDFATYYCQQVVWRPFTFGQGTKVEIKRV[human IgG1 Fc with changes left out]
B15: TNFα dAb Fc variant I48P (Fc fusion, name in Kabat numbering)
chain: DIQMTQSPSSLSASVGDRVTITCRASQAIDSYLHWYQQKPGKAPKLLPYSASNLETGVPSRFSGSGSGTDFTLTISSLLPEDFATYYCQQVVWRPFTFGQGTKVEIKRV[human IgG1 Fc with changes left out]
B16: TNFα dAb Fc variant G66L (Fc fusion, name in Kabat numbering)
chain: DIQMTQSPSSLSASVGDRVTITCRASQAIDSYLHWYQQKPGKAPKLLIYSASNLETGVPSRFSGSLSGTDFTLTISSLLPEDFATYYCQQVVWRPFTFGQGTKVEIKRV[human IgG1 Fc with changes left out]
B17: TNFα dAb Fc variant G66S (Fc fusion, name in Kabat numbering)
chain: DIQMTQSPSSLSASVGDRVTITCRASQAIDSYLHWYQQKPGKAPKLLIYSASNLETGVPSRFSGSSSGTDFTLTISSLLPEDFATYYCQQVVWRPFTFGQGTKVEIKRV[human IgG1 Fc with changes left out]
B18: TNFα dAb Fc variant G68Q (Fc fusion, name in Kabat numbering)
chain: DIQMTQSPSSLSASVGDRVTITCRASQAIDSYLHWYQQKPGKAPKLLIYSASNLETGVPSRFSGSGSQTDFTLTISSLLPEDFATYYCQQVVWRPFTFGQGTKVEIKRV[human IgG1 Fc with changes left out]
B19: TNFα dAb Fc variant I48A (Fc fusion, name in Kabat numbering)
chain: DIQMTQSPSSLSASVGDRVTITCRASQAIDSYLHWYQQKPGKAPKLLAYSASNLETGVPSRFSGSGSGTDFTLTISSLLPEDFATYYCQQVVWRPFTFGQGTKVEIKRV[human IgG1 Fc with changes left out]
B20: TNFα dAb Fc variant G68L (Fc fusion, name in Kabat numbering)
chain: DIQMTQSPSSLSASVGDRVTITCRASQAIDSYLHWYQQKPGKAPKLLIYSASNLETGVPSRFSGSGSLTDFTLTISSLLPEDFATYYCQQVVWRPFTFGQGTKVEIKRV[human IgG1 Fc with changes left out]
B21: TNFα dAb Fc variant G64P (Fc fusion, name in Kabat numbering)
chain: DIQMTQSPSSLSASVGDRVTITCRASQAIDSYLHWYQQKPGKAPKLLIYSASNLETGVPSRFSPSGSGTDFTLTISSLLPEDFATYYCQQVVWRPFTFGQGTKVEIKRV[human IgG1 Fc with changes left out]
B22: TNFα dAb Fc variant I48D (Fc fusion, name in Kabat numbering)
chain: DIQMTQSPSSLSASVGDRVTITCRASQAIDSYLHWYQQKPGKAPKLLDYSASNLETGVPSRFSGSGSGTDFTLTISSLLPEDFATYYCQQVVWRPFTFGQGTKVEIKRV[human IgG1 Fc with changes left out]

These results are taken from patent publication US20110319597A1 (CAPHALON AUSTRALIA, published 2011).

The assay addresses T1, recombinant human TNFα (CytoLab) (human, UniProt P01375 part only).
T1 construct: coated on the ELISA plate at 1 µg/ml; also called Tumour necrosis factor alpha
T1 sequence (P01375 77-233 limits assumed): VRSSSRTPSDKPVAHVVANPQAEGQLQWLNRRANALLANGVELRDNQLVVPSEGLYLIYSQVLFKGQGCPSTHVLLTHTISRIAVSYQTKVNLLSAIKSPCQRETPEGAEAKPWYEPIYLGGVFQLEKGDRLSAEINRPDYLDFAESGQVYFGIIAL
Briefly: ELISA on coated human TNFα. Background: An ELISA detects its analyte on a solid surface through an enzyme-linked reagent.
Consider B1, for which the “A450 (AU)” value stood at 0.226 AU.

With B2, the “A450 (AU)” value is 0.808 AU. Under B3 stands 0.189 AU; under B4, 0.587 AU; under B5, 0.305 AU.

For B6, the “A450 (AU)” value is 0.827 AU.

Consider B7, for which the “A450 (AU)” value amounted to 0.325 AU. Under B8 stands 0.253 AU. As to B9, the “A450 (AU)” value was 0.193 AU. For B10, the “A450 (AU)” value was 0.265 AU.

On to B11, for which the “A450 (AU)” value was found to be 0.883 AU.

For B12, the “A450 (AU)” value worked out at 0.184 AU. The value for B13 was 0.234 AU; that for B14 was 0.163 AU; that for B15 was 0.193 AU. On to B16, for which the “A450 (AU)” value was 0.842 AU. The value for B17 was 0.393 AU; that for B18 was 0.889 AU. In the case of B19, the “A450 (AU)” value came out at 1.25 AU.

In the case of B20, the “A450 (AU)” value turned out to be 0.443 AU. Turning to B21, the “A450 (AU)” value came out at 0.643 AU.

In the case of B22, the “A450 (AU)” value is 0.239 AU.
